# PubChem BioAssay (NCATS)
# The inconclusive results got no clear call from the source; some entries with a clear call stand among them for comparison. Where the call is inconclusive, the potency comes from a doubtful curve fit. The source made the active and inactive calls. Calls follow the shape of the dose curve; as a rule, active = well fitted cell-killing curve with a large enough effect; inconclusive = small, poorly fitted or top-dose-only effect, or effect the other way; inactive = no such curve, though single readings can be large or run the other way.
# Assays:
# [1] = Viability qHTS for spleen associated tyrosine kinase inhibitor (SYKi) naive MV4-11 cells (AID 1963823); conditions: MV4-11 AML viability, CellTiter-Glo luminescence, 72 h; series mostly up to 45 µM; also: nearly all actives have a fitted effect of over 40% in size
# Outline: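 CellTiter-Glo luminescence, 10 min room-temperature incubation, gave viability. Cells: naive MV4-11 (500/well), treated 72 hr at 37 C, 5% CO2.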
# [2] = Viability qHTS for spleen associated tyrosine kinase inhibitor (SYKi) drug resistant MV4-11 cells (AID 1963824); also: nearly all actives have a fitted effect of over 35% in size
# Outline: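 CellTiter-Glo luminescence, read 10 min after reagent addition, reports viability after a 72 hr compound exposure. Cells are an MV4-11 line made resistant to SYK inhibition, seeded at 500 per well onto compound-containing plates.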
# Potency is read from the fitted curve at half-maximal effect; tags tell the direction and shape of the fitted curve.
Compound,Potency [1],Potency [2]
CC(=O)N1CCN(Cc2ccc([C@H](C)Nc3nccc(N4C(=O)OC[C@@H]4C(C)C)n3)cc2)CC1,"inconclusive: 10.3 µM [cytotoxic, partial curve]","inconclusive: 11.6 µM [cytotoxic, partial curve]"
COc1cc2ncnc(Sc3nnc(C)s3)c2cc1OC,active: 0.82 µM,active: 1.16 µM
C=C1[C@@H]2CC[C@@]3(C)[C@H](c4ccoc4)OC(=O)C[C@]13O[C@H]1CC(=O)C(C)(C)[C@H](CC(=O)OC)[C@]12C,inactive,inactive
CC[C@H]1OC(=O)[C@H](C)[C@@H](O[C@H]2C[C@@](C)(OC)[C@@H](O)[C@H](C)O2)[C@H](C)[C@@H](O[C@@H]2O[C@H](C)C[C@H](N(C)C)[C@H]2O)[C@](C)(O)C[C@@H](C)C(=O)[C@H](C)[C@@H](O)[C@]1(C)O,inactive,inconclusive: 0.0006 µM [cytotoxic]
O=C(OCc1cccc(O)c1O[C@@H]1O[C@H](CO)[C@@H](O)[C@H](O)[C@H]1O)C1(O)C(=O)C2C=CC1C1C=CC(=O)C(O)(C(=O)OCc3cccc(O)c3O[C@@H]3O[C@H](CO)[C@@H](O)[C@H](O)[C@H]3O)C21 (stereo partly specified),"inconclusive: 6.93 µM [cytotoxic, single point]","inconclusive: 3.48 µM [cytotoxic, partial curve]"
O=[N+]([O-])c1cn2c(n1)OCC(OCc1ccc(OC(F)(F)F)cc1)C2 (stereo unspecified),"inconclusive: 16.4 µM [cytotoxic, partial curve, poor fit]","inconclusive: 29.1 µM [cytotoxic, single point]"
O=C(/C=C/c1ccccc1)O[C@@H]1[C@@H](CO)O[C@@](CO)(O[C@H]2O[C@H](CO)[C@@H](O)[C@H](O)[C@H]2O)[C@H]1O,inactive,inactive
COc1cc(C(C)=O)c(OC)c2c1OC(C)(C)C=C2,inactive,"inconclusive: 23.1 µM [cytotoxic, single point]"
COC(=O)/C=C/C12COC(C)(C)C1C(O)C(OC(C)=O)C1(C)C2CCC2(C)C(c3ccoc3)OC(=O)C3OC321 (stereo unspecified),"inconclusive: 14.2 µM [cytotoxic, single point]","inconclusive: 7.96 µM [cytotoxic, single point]"
N#Cc1cc(-c2ccnc(Nc3ccc(N4CCOCC4)cc3)n2)ccc1OC1CCOCC1,"inconclusive: 0.461 µM [cytotoxic, full curve]","inconclusive: 0.651 µM [cytotoxic, full curve]"
Cc1c(OCc2cccc(-c3ccc(C(=O)O)cc3)c2)cc2c(c1C)C(=O)C(C1CCCC1)C2 (stereo unspecified),"inconclusive: 0.0259 µM [cytotoxic, single point]",inactive
C#CC(=O)N(c1ccc(OC)cc1OC)C(C(=O)NCC(=O)OCC)c1cccs1 (stereo unspecified),active: 0.116 µM,"inconclusive: 0.13 µM [cytotoxic, full curve]"
COc1cc(C2Oc3c(OC)cc(/C=C/C(=O)OC[C@H]4O[C@@H](OC(C)(C)C(=O)O)[C@H](O)[C@@H](O)[C@@H]4O)cc3C2CO)ccc1O (stereo partly specified),inactive,inactive
O=C(/C=C/c1ccc(O)cc1)N[C@@H](Cc1ccc(O)cc1)C(=O)O,inactive,inactive
O=S(=O)(c1ccc(S(=O)(=O)n2cnc3ccccc32)cc1)N1CCCCCC1,inactive,"inconclusive: 2.82 µM [cytotoxic, single point]"
CCCCNC(=O)NS(=O)(=O)c1ccc(C)cc1,inactive,inactive
COc1cc(O)cc(C)c1C(=O)O[C@H]1[C@@H](OC(C)=O)[C@H](n2ccc(=O)[nH]c2=O)O[C@@H]1CO,inactive,inactive
CC(C)(O)C1Cc2c(ccc(C(=O)CCc3ccccc3)c2O)O1 (stereo unspecified),"inconclusive: 10.1 µM [cytotoxic, partial curve]","inconclusive: 14.3 µM [cytotoxic, partial curve, poor fit]"
